In the supplement of paper PMC6089552:
In all, about 3,200 compounds went through this assay and about 300 (9.4%) showed activity. Only a part is listed here, and it is no random draw.

Tested on: A673/TR/shEF
Experiment: cell viability (LOESS-normalised, relative to median of negative controls) (log2 ratio); higher = more viable cells (less compound effect), active = hit call of the paper (over 3 MAD below the median)
Details: treatment time: 72 h
Procedure, shortened: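 A673/TR/shEF Ewing sarcoma cells were plated at 1,500 per well in 384-well plates and cultured with or without doxycycline, added 24 h before compounds, to induce EWS-FLI1 shRNA knockdown. Library compounds at two or more concentrations, alongside DMSO controls, were applied for three days. Cell viability was measured by CellTiter-Glo luminescence on an Envision reader. Readings were LOESS-corrected per plate, divided by the median of negative controls and log2-transformed, and hits were wells lying at least three median absolute deviations from the median of all screened wells.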

[1] = 0.25 µM, library screen: screen2, EWS-FLI1 expression: high (no doxycycline)
[2] = 0.25 µM, library screen: screen2, EWS-FLI1 expression: low (doxycycline-induced shRNA knockdown)
[3] = 2.5 µM, library screen: screen2, EWS-FLI1 expression: high (no doxycycline)
[4] = 2.5 µM, library screen: screen2, EWS-FLI1 expression: low (doxycycline-induced shRNA knockdown)
[5] = 0.103 µM, library screen: screen3, EWS-FLI1 expression: high (no doxycycline)
[6] = 0.103 µM, library screen: screen3, EWS-FLI1 expression: low (doxycycline-induced shRNA knockdown)
[7] = 0.308 µM, library screen: screen3, EWS-FLI1 expression: high (no doxycycline)
[8] = 0.308 µM, library screen: screen3, EWS-FLI1 expression: low (doxycycline-induced shRNA knockdown)
[9] = 0.926 µM, library screen: screen3, EWS-FLI1 expression: high (no doxycycline)
[10] = 0.926 µM, library screen: screen3, EWS-FLI1 expression: low (doxycycline-induced shRNA knockdown)
[11] = 2.8 µM, library screen: screen3, EWS-FLI1 expression: high (no doxycycline)
[12] = 2.8 µM, library screen: screen3, EWS-FLI1 expression: low (doxycycline-induced shRNA knockdown)
[13] = 8.3 µM, library screen: screen3, EWS-FLI1 expression: high (no doxycycline)
[14] = 8.3 µM, library screen: screen3, EWS-FLI1 expression: low (doxycycline-induced shRNA knockdown)
[15] = 25 µM, library screen: screen3, EWS-FLI1 expression: high (no doxycycline)
[16] = 25 µM, library screen: screen3, EWS-FLI1 expression: low (doxycycline-induced shRNA knockdown)
[17] = 0.25 µM, library screen: screen1, EWS-FLI1 expression: high (no doxycycline)
[18] = 0.25 µM, library screen: screen1, EWS-FLI1 expression: low (doxycycline-induced shRNA knockdown)
[19] = 2.5 µM, library screen: screen1, EWS-FLI1 expression: high (no doxycycline)
[20] = 2.5 µM, library screen: screen1, EWS-FLI1 expression: low (doxycycline-induced shRNA knockdown)

Measured: cell viability (log2)

CC(=O)C(C)=O
inactive: [1] 0.0591 | [2] 0.121 | [3] 0.128 | [4] 0.16

CCCCCCCCc1ccc(CCC(N)(CO)CO)cc1
inactive: [5] 0.0814 | [6] 0.0528 | [7] 0.0332 | [8] -0.0148 | [9] 0.0328 | [10] 0.0341 | [11] 0.00825 | [12] 0.0473 | [13] -0.0193 | [14] 0.0563
active: [15] -0.341 | [16] -0.161

COC(=O)c1c(C)c2c(c(C)c1OC(C)=O)OC(=O)c1c(C)c(Cl)c(O)c(Cl)c1O2
inactive: [17] 0.0664 | [18] 0.0141 | [19] 0.0918 | [20] 0.03

CC(C)c1c(O)ccc2c1CCC1[C@@](C)(C(=O)O)CCC[C@]21C (some centres not stated)
inactive: [17] 0.0397 | [18] 0.152 | [19] 0.0988 | [20] 0.234

CC(=O)OCC1=C(C(=O)O)N2C(=O)[C@@H](NC(=O)CSc3ccncc3)[C@H]2SC1
inactive: [17] 0.0377 | [18] 0.00515 | [1] 0.158 | [2] 0.0685 | [19] 0.129 | [20] 0.115 | [3] 0.0516 | [4] 0.0791

Cc1cc(O)c2c(c1)Cc1cccc(O)c1C2=O
inactive: [17] 0.119 | [18] 0.00964 | [19] 0.16 | [20] 0.111

COC(=O)c1c(-c2cc(OC)c(OC)c(OC)c2)c2ccnc(OCc3ncccn3)c2c(=O)n1Cc1ccnc(C)c1
inactive: [1] 0.081 | [2] 0.0559 | [3] 0.249 | [4] 0.00697

C[C@]12CC[C@@H]3c4ccc(O)cc4CC[C@H]3[C@@H]1CCC2=O
0.314: [19]
inactive: [5] 0.082 | [6] 0.0198 | [17] 0.266 | [18] 0.22 | [1] 0.101 | [2] 0.114 | [7] -0.0119 | [8] 0.0733 | [9] 0.0965 | [10] 0.0845 | [20] 0.181 | [3] 0.0352 | [4] 0.0654 | [11] 0.0464 | [12] 0.0309 | [13] 0.0237 | [14] 0.0831 | [15] 0.168 | [16] -0.00855

CC(=O)c1c(O)c(C)c(O)c2c1OC1=CC(=O)C(C(C)=O)C(=O)C12C (configuration not stated)
inactive: 0.025 µM, library screen: screen2, EWS-FLI1 expression: high (no doxycycline) 0.112 | 0.025 µM, library screen: screen2, EWS-FLI1 expression: low (doxycycline-induced shRNA knockdown) 0.00783 | [17] 0.0672 | [18] 0.0498 | [1] 0.101 | [2] 0.0398 | [19] 0.209 | [20] 0.0665 | [3] 0.0699 | [4] 0.0728 | 25 µM, library screen: screen2, EWS-FLI1 expression: high (no doxycycline) 0.183 | 25 µM, library screen: screen2, EWS-FLI1 expression: low (doxycycline-induced shRNA knockdown) 0.0624

CC(=O)OCC(=O)[C@@]1(O)CC[C@H]2[C@@H]3C[C@H](C)C4=CC(=O)C=C[C@]4(C)[C@H]3[C@@H](O)C[C@@]21C
inactive: [17] 0.0844 | [18] -0.0725 | [19] 0.0783 | [20] -0.0354

O=C(Nc1c(-c2ccccc2)nc2ccc(Cl)cn12)c1ccc(F)cc1
inactive: [17] 0.0947 | [18] 0.0794 | [19] 0.184 | [20] -0.0685

CC(=O)OC1CCC2(C)C3=C(CC[C@H]2C1(C)C)[C@@]1(C)CC[C@@H]([C@@H](C)CCC=C(C)C)[C@]1(C)CC3 (some centres not stated)
inactive: [17] 0.058 | [18] -0.000522 | [19] 0.0338 | [20] -0.0772

Clc1cccc(CN2CCN(Cc3ccco3)CC2)c1
inactive: [17] 0.0456 | [18] 0.0122 | [19] 0.0707 | [20] -0.00788

CC1CN(S(=O)(=O)c2cccc3cnccc23)CCN1 (configuration not stated)
inactive: [1] 0.246 | [2] 0.094 | [3] 0.214 | [4] 0.111

CCOC(=O)C1=C[C@]2(CC)CCCN3CCc4c(n1c1ccccc41)[C@@H]32
inactive: [17] 0.0816 | [18] 0.181 | [1] 0.117 | [2] 0.0747 | [19] 0.121 | [20] 0.157 | [3] 0.0944 | [4] -0.0237

CC(=O)c1cc2c(cc1O)OC(C)(C)C=C2
inactive: [17] 0.16 | [18] -0.0151 | [19] 0.126 | [20] 0.0912

N#CC(C#N)=C(N)/C(C#N)=C/c1ccc2[nH]ccc2c1
inactive: 0.025 µM, library screen: screen1, EWS-FLI1 expression: low (doxycycline-induced shRNA knockdown) 0.0769 | [17] 0.269 | [18] 0.0358 | [20] 0.0519 | 25 µM, library screen: screen1, EWS-FLI1 expression: low (doxycycline-induced shRNA knockdown) 0.0138
active: [19] -0.421 | 25 µM, library screen: screen1, EWS-FLI1 expression: high (no doxycycline) -0.203
0.369: 0.025 µM, library screen: screen1, EWS-FLI1 expression: high (no doxycycline)
